# Test results as given in the supplement of paper PMC8728848.
# Some of the results follow.
# Legend:
# Assay in all cases: glycan array binding signal (z-score within array); higher = stronger binding
# Details in all cases: glycan notation: IUPAC condensed, linker removed
# [1] = target: Gal(b1-4)GlcNAc(b1-3)Gal(b1-4)GlcNAc(b1-3)Gal(b1-4)GlcNAc(b1-3)Gal(b1-4)GlcNAc(b1-2)Man(a1-3)[Gal(b1-4)GlcNAc(b1-3)Gal(b1-4)GlcNAc(b1-3)Gal(b1-4)GlcNAc(b1-3)Gal(b1-4)GlcNAc(b1-2)Man(a1-6)]Man(b1-4)GlcNAc(b1-4)[Fuc(a1-6)]GlcNAc
# Outline: (§1)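 From the Consortium for Functional Glycomics database, 3228 arrays were curated, keeping only those whose protein sequence was available. Binding is given as a within-array Z-score averaged across arrays sharing a protein sequence and across linkers. Negative Z-scores can be read as non-binding.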
# [2] = target: Gal(b1-4)GlcNAc(b1-3)Gal(b1-4)GlcNAc(b1-3)Gal(b1-4)GlcNAc(b1-3)Gal(b1-4)GlcNAc(b1-2)[Gal(b1-4)GlcNAc(b1-3)Gal(b1-4)GlcNAc(b1-3)Gal(b1-4)GlcNAc(b1-3)Gal(b1-4)GlcNAc(b1-6)]Man(a1-6)[Gal(b1-4)GlcNAc(b1-3)Gal(b1-4)GlcNAc(b1-3)Gal(b1-4)GlcNAc(b1-3)Gal(b1-4)GlcNAc(b1-2)Man(a1-3)]Man(b1-4)GlcNAc(b1-4)[Fuc(a1-6)]GlcNAc
# Outline: as §1
# [3] = target: Gal(b1-4)GlcNAc(b1-3)Gal(b1-4)GlcNAc(b1-3)Gal(b1-4)GlcNAc(b1-3)Gal(b1-4)GlcNAc(b1-3)Gal(b1-4)GlcNAc(b1-2)Man(a1-3)[Gal(b1-4)GlcNAc(b1-3)Gal(b1-4)GlcNAc(b1-3)Gal(b1-4)GlcNAc(b1-3)Gal(b1-4)GlcNAc(b1-3)Gal(b1-4)GlcNAc(b1-2)Man(a1-6)]Man(b1-4)GlcNAc(b1-4)GlcNAc
# Outline: as §1
# [4] = target: Gal(b1-4)GlcNAc(b1-3)Gal(b1-4)GlcNAc(b1-3)Gal(b1-4)GlcNAc(b1-3)Gal(b1-4)GlcNAc(b1-3)Gal(b1-4)GlcNAc(b1-2)Man(a1-3)[Gal(b1-4)GlcNAc(b1-3)Gal(b1-4)GlcNAc(b1-3)Gal(b1-4)GlcNAc(b1-3)Gal(b1-4)GlcNAc(b1-3)Gal(b1-4)GlcNAc(b1-2)Man(a1-6)]Man(b1-4)GlcNAc(b1-4)[Fuc(a1-6)]GlcNAc
# Outline: as §1
# [5] = target: Gal(b1-4)GlcNAc(b1-3)Gal(b1-4)GlcNAc(b1-3)Gal(b1-4)GlcNAc(b1-3)Gal(b1-4)GlcNAc(b1-3)Gal(b1-4)GlcNAc(b1-2)[Gal(b1-4)GlcNAc(b1-3)Gal(b1-4)GlcNAc(b1-3)Gal(b1-4)GlcNAc(b1-3)Gal(b1-4)GlcNAc(b1-3)Gal(b1-4)GlcNAc(b1-6)]Man(a1-6)[Gal(b1-4)GlcNAc(b1-3)Gal(b1-4)GlcNAc(b1-3)Gal(b1-4)GlcNAc(b1-3)Gal(b1-4)GlcNAc(b1-3)Gal(b1-4)GlcNAc(b1-2)Man(a1-3)]Man(b1-4)GlcNAc(b1-4)[Fuc(a1-6)]GlcNAc
# Outline: as §1
# [6] = target: Gal(b1-4)GlcNAc(b1-3)Gal(b1-4)GlcNAc(b1-3)Gal(b1-4)GlcNAc(b1-3)Gal(b1-4)GlcNAc(b1-3)Gal(b1-4)GlcNAc(b1-3)Gal(b1-4)GlcNAc(b1-2)Man(a1-3)[Gal(b1-4)GlcNAc(b1-3)Gal(b1-4)GlcNAc(b1-3)Gal(b1-4)GlcNAc(b1-3)Gal(b1-4)GlcNAc(b1-3)Gal(b1-4)GlcNAc(b1-3)Gal(b1-4)GlcNAc(b1-2)Man(a1-6)]Man(b1-4)GlcNAc(b1-4)GlcNAc
# Outline: as §1
# [7] = target: Gal(b1-4)GlcNAc(b1-3)Gal(b1-4)GlcNAc(b1-3)GalNAc
# Outline: as §1
# [8] = target: Gal(b1-4)GlcNAc(b1-3)Gal(b1-4)GlcNAc(b1-3)[Gal(b1-4)GlcNAc(b1-3)Gal(b1-4)GlcNAc(b1-6)]GalNAc
# Outline: as §1
# [9] = target: Gal(b1-4)GlcNAc(b1-3)Gal(b1-4)GlcNAc(b1-6)[Gal(b1-3)]GalNAc
# Outline: as §1
# [10] = target: Gal(b1-4)GlcNAc(b1-3)Gal(b1-4)[Fuc(a1-3)]GlcNAc(b1-3)Gal(b1-4)[Fuc(a1-3)]GlcNAc
# Outline: as §1
# [11] = target: Gal(b1-4)GlcNAc(b1-3)GalNAc
# Outline: as §1
# [12] = target: Gal(b1-4)GlcNAc(b1-3)[Fuc(a1-3)GlcNAc(b1-6)]Gal(b1-4)Glc
# Outline: as §1
# [13] = target: Gal(b1-4)GlcNAc(b1-3)[Gal(b1-4)GlcNAc(b1-6)]Gal(b1-4)GlcNAc
# Outline: as §1
# [14] = target: Gal(b1-4)GlcNAc(b1-3)[GlcNAc(b1-6)]Gal(b1-4)GlcNAc
# Outline: as §1
# [15] = target: Gal(b1-4)GlcNAc(b1-6)Gal(b1-4)GlcNAc
# Outline: as §1
# [16] = target: Gal(b1-4)GlcNAc(b1-6)GalNAc
# Outline: as §1
# [17] = target: Gal(b1-4)GlcNAc(b1-6)[Gal(b1-3)]GalNAc
# Outline: as §1
# [18] = target: Gal(b1-4)GlcNAc(b1-6)[Gal(b1-4)GlcNAc(b1-3)]GalNAc
# Outline: as §1
# [19] = target: Gal(b1-4)GlcNAc6P
# Outline: as §1
# [20] = target: Gal(b1-6)Gal
# Outline: as §1
# [21] = target: Gal3S(b1-3)GalNAc
# Outline: as §1
# [22] = target: Gal3S(b1-3)GlcNAc
# Outline: as §1
# [23] = target: Gal3S(b1-3)[Fuc(a1-4)]GlcNAc
# Outline: as §1
binder,measurement,setting,value
AidA (Burkholderia cenocepacia) (protein) MSRVTDVLVSFDTETILKKYPNPSKNPAAPTLIDWRYVYMVTNQDNVISGQAGGELDLKAQVGDLIRWRETSLSLGFENQVVFYKFIGNVGNDLISTPTPRVAEASIPVPNTSKPEVPTCQKVANYYWSSECLKVGRVTYHFQFQIIDRNCQSQGCFSWDPFISIHN,glycan array binding signal (z-score),[1],0.416
same,glycan array binding signal (z-score),[2],-0.096
same,glycan array binding signal (z-score),[3],-0.488
same,glycan array binding signal (z-score),[4],-0.941
same,glycan array binding signal (z-score),[5],0.252
same,glycan array binding signal (z-score),[6],0.682
same,glycan array binding signal (z-score),[7],-0.662
same,glycan array binding signal (z-score),[8],-0.014
same,glycan array binding signal (z-score),[9],-0.423
same,glycan array binding signal (z-score),[10],-0.556
same,glycan array binding signal (z-score),[11],-0.375
same,glycan array binding signal (z-score),[12],-0.573
same,glycan array binding signal (z-score),[13],-0.337
same,glycan array binding signal (z-score),[14],-0.319
same,glycan array binding signal (z-score),[15],0.006
same,glycan array binding signal (z-score),[16],-0.507
same,glycan array binding signal (z-score),[17],-0.159
same,glycan array binding signal (z-score),[18],-0.26
same,glycan array binding signal (z-score),[19],-0.044
same,glycan array binding signal (z-score),[20],-0.528
same,glycan array binding signal (z-score),[21],-0.316
same,glycan array binding signal (z-score),[22],2.41
same,glycan array binding signal (z-score),[23],0.147
